# “And” between values parts separate entries of the source, which are not always exact repeats. Equal values may be shown once. Inconclusive results, whose numbers are uncertain, are shown with a selection of clear calls. For part of these data: Where the call is inconclusive, the potency comes from a doubtful curve fit. More than one record can exist for a structure, and the calls need not agree. The source made the active and inactive calls. Unless noted, the call rests on the fitted dose curve; in most records, active means well fitted curve in the direction sought with a large enough effect in the repeat runs; inconclusive means weak or mixed curves; inactive means no such curve, though single readings can be large; an effect the other way counts as inactive or inconclusive.
# Key:
# [1] = qHTS assay to identify small molecule antagonists of the glucocorticoid receptor (GR) signaling pathway - cell viability counter screen (AID 720693); settings: GR-bla HeLa viability, CellTiter-Glo luminescence, 18 h, with 5 nM dexamethasone present; viability change, negative = cytotoxic: at 58.5 µM (top of the series) unless noted; further: nearly all actives have a fitted effect of over 55% in size; on viability change, negative = cytotoxic: on the % scale 0 is the no-effect control and ±100 the full control effect
# [2] = qHTS assay for identifying genotoxic compounds that show differential cytotoxicity against isogenic chicken DT40 cell lines with known DNA damage response pathways - wild type cell line (AID 743012); settings: DT40 wild type chicken cells viability, CellTiter-Glo, 40 h; activity change, negative = cytotoxicity: at 68.4 µM (top of the series) unless noted; further: nearly all actives have a fitted effect of over 60% in size
# Summary of the method: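 First, wild type DT40 cells were plated at 300 per well and equilibrated about 0.5 h at 37 C/5% CO2. Next, compounds in DMSO were added and exposure lasted 40 h. Finally, CellTiter-Glo was added for 30 min at room temperature and luminescence recorded.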
# [3] = qHTS assay to identify small molecule antagonists of the thyroid receptor (TR) signaling pathway - cell viability counter screen (AID 743064); settings: GH3.TRE-Luc viability, CellTiter-Fluor, 24 h; activity change, negative = cytotoxic: at 70.3 µM (top of the series) unless noted; further: nearly all actives have a fitted effect of over 50% in size
# Summary of the method: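 GH3.TRE-Luc rat pituitary cells dosed after 4 hr plating, co-stimulated with T3 at 1 nM final, incubated 23.5 h at 37 C. Viability measured in the same wells by CellTiter-Fluor fluorescence after 30 min further at 37 C.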
# [4] = tested on: thyroid hormone receptor (rat, GH3 cells); test: qHTS assay to identify small molecule agonists of the thyroid receptor (TR) signaling pathway (AID 743066; calls by dose curve; on activation: on the % scale 0 is the no-effect control and ±100 the full control effect); settings: GH3.TRE-Luc cells, TR agonist luciferase, 24 h; activation: at 83.9 µM (top of the series) unless noted
# [5] = target: Estrogen receptor (Homo sapiens) (UniProt P03372); test: qHTS assay to identify small molecule antagonists of the estrogen receptor alpha (ER-alpha) signaling pathway (AID 743069; active means well fitted curve in the direction sought with a large enough effect in the signal ratio in the repeat runs, not every such curve was filed as active; inconclusive means weak or mixed curves, or effect the other way; inactive means no such curve, though single readings can be large or run the other way; the % refers to the signal ratio); settings: HEK293 ER-alpha-UAS-bla, beta-lactamase ratio, antagonist mode; activity, negative = inhibition: at 69.4 µM (top of the series) unless noted
# Summary of the method: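 HEK293 ER-alpha-UAS-bla GripTite cells, held overnight in 2% charcoal-stripped FBS, 5,000 cells/well, preincubated 4 h, then compound plus 17beta-estradiol for 18 h at 37C. Beta-lactamase read by LiveBLAzer B/G FRET substrate, 2 h at room temperature.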
# [6] = qHTS assay to identify small molecule antagonists of the estrogen receptor alpha (ER-alpha) signaling pathway - cell viability counter screen (AID 743074; calls by dose curve;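 further: HEK293 cells carrying ER-alpha-UAS-bla reporter stimulated with 17beta-estradiol; nearly all actives have a fitted effect of over 45% in size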); settings: ERalpha-bla HEK293 viability, CellTiter-Glo luminescence, 18 h; series mostly up to 69.4 µM
# [7] = target: Estrogen receptor (Homo sapiens) (UniProt P03372); test: qHTS assay to identify small molecule agonists of the estrogen receptor alpha (ER-alpha) signaling pathway using the BG1 cell line (AID 743079); settings: BG1Luc4E2 cells, ERE-luciferase agonist, 22 h; activation: at 70.3 µM (top of the series) unless noted; further: nearly all actives have a fitted effect of over 20% in size
# [8] = qHTS assay to identify small molecule antagonists of the estrogen receptor alpha (ER-alpha) signaling pathway using the BG1 cell line (AID 743080; calls by dose curve;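 further: BG1 cells stimulated with 17beta-estradiol alongside compound; nearly all actives have a fitted effect of over 25% in size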); settings: BG1Luc4E2 ERE-luciferase antagonist mode, luminescence; activity change, negative = inhibition: at 70.3 µM (top of the series) unless noted
# Summary of the method: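 Luminescence from a 4×ERE-luciferase reporter in BG1-Luc-4E2 cells served as read-out. Cells, pre-cultured 5 days in stripped-serum phenol-red-free medium, were exposed to compound with 17beta-estradiol co-stimulation for 21.5 h at 37 C.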
# [9] = qHTS assay to identify small molecule antagonists of the estrogen receptor alpha (ER-alpha) signaling pathway using the BG1 cell line - cell viability counter screen (AID 743081); settings: BG1Luc4E2 viability, CellTiter-Fluor, 22 h; activity change, negative = cytotoxicity: at 70.3 µM (top of the series) unless noted;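 further: compound given together with 17beta-estradiol as the ER stimulus; nearly all actives have a fitted effect of over 45% in size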
# [10] = qHTS assay for identifying genotoxic compounds that show differential cytotoxicity against isogenic chicken DT40 cell lines with known DNA damage response pathways - Rad54/Ku70 mutant cell line (AID 743015); settings: DT40 Rad54/Ku70 mutant viability, CellTiter-Glo, 40 h; activity change, negative = cytotoxicity: at 66.8 µM (top of the series); further: nearly all actives have a fitted effect of over 60% in size; on activity change, negative = cytotoxicity: on the % scale 0 is the no-effect control and ±100 the full control effect
# [11] = target: Androgen receptor (Homo sapiens) (UniProt P10275); test: qHTS assay to identify small molecule antagonists of the androgen receptor (AR) signaling pathway (AID 743035; active means well fitted inhibition curve with a large enough effect in the signal ratio in the repeat runs, not every such curve was filed as active; inconclusive means weak or mixed curves, or effect the other way; inactive means no such curve, though single readings can be large or run the other way; the % refers to the signal ratio); settings: HEK293 AR-UAS-bla, R1881-stimulated, beta-lactamase FRET, 16 h; activity change, negative = inhibition: at 58.5 µM (top of the series) unless noted
# Summary of the method: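 Beta-lactamase FRET read (2 h RT incubation with LiveBLAzer B/G) following 16 h of compound plus R1881 treatment of AR-UAS-bla HEK293 cells, which had been pre-incubated 4 h at 37C.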
# [12] = target: Androgen receptor (Homo sapiens) (UniProt P10275); test: qHTS assay to identify small molecule agonists of the androgen receptor (AR) signaling pathway (AID 743036; active means well fitted activation curve with a large enough effect in the signal ratio in the repeat runs, with a control signal flat, not every such curve was filed as active; inconclusive means weak or mixed curves, or effect the other way; inactive means no such curve, though single readings can be large or run the other way; the % refers to the signal ratio; on activation: on the % scale 0 is the no-effect control and ±100 the full control effect); settings: HEK293 AR-UAS-bla GripTite, beta-lactamase FRET ratio, 16 h; activation: at 62.4 µM (top of the series) unless noted
# Summary of the method: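 AR-UAS-bla HEK293 cells, plated 4 h before dosing, were treated with compound for 16 h at 37C. beta-Lactamase reporter read after 2 h with LiveBLAzer B/G FRET substrate at room temperature.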
# [13] = qHTS assay for identifying genotoxic compounds that show differential cytotoxicity against isogenic chicken DT40 cell lines with known DNA damage response pathways - Rev3 mutant cell line (AID 743014); settings: chicken DT40 Rev3-/- viability, CellTiter-Glo, 40 h; activity, negative = cytotoxicity: at 68.4 µM (top of the series); further: nearly all actives have a fitted effect of over 55% in size
# [14] = qHTS assay to identify small molecule antagonists of the androgen receptor (AR) signaling pathway - cell viability counter screen (AID 743033; further: nearly all actives have a fitted effect of over 45% in size); settings: AR-bla HEK293 viability, CellTiter-Glo luminescence, 16 h; activity change, negative = cytotoxicity: at 58.5 µM (top of the series) unless noted
# [15] = target: Aromatase (Homo sapiens) (UniProt P11511); test: qHTS assay to identify aromatase inhibitors (AID 743083); settings: MCF-7 aro ERE, testosterone-driven ERE luciferase, 24 h; activity, negative = inhibition: at 70.3 µM (top of the series); further: nearly all actives have a fitted effect of over 55% in size
# [16] = target: Estrogen receptor (Homo sapiens) (UniProt P03372); test: qHTS assay to identify small molecule agonists of the estrogen receptor alpha (ER-alpha) signaling pathway (AID 743075; calls by dose curve); settings: HEK293 ER-alpha-UAS-bla, beta-lactamase FRET ratio, 18 h; series mostly up to 70.1 µM
# Potency means the concentration at half of the fitted maximal effect; tags describe the fitted curve by direction and shape or compound fluorescence and quenching.
# Chain of UniProt P03372 (P03372 whole entry, looked up): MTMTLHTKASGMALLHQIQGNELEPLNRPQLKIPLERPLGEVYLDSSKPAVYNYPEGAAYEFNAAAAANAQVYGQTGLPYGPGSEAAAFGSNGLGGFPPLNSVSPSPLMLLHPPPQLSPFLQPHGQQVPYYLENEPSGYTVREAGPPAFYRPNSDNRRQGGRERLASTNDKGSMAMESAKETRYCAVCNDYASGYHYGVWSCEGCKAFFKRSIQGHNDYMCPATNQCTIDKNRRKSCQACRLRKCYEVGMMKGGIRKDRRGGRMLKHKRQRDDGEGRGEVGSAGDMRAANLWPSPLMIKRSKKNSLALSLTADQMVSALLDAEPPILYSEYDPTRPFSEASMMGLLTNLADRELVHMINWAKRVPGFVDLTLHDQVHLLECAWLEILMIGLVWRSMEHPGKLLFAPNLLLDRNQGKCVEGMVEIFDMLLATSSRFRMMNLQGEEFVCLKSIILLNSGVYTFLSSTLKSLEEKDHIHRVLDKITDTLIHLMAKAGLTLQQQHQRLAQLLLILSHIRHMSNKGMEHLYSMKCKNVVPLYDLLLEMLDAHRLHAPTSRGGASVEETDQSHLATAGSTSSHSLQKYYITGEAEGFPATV
# Chain of UniProt P10275 (P10275 whole entry, looked up): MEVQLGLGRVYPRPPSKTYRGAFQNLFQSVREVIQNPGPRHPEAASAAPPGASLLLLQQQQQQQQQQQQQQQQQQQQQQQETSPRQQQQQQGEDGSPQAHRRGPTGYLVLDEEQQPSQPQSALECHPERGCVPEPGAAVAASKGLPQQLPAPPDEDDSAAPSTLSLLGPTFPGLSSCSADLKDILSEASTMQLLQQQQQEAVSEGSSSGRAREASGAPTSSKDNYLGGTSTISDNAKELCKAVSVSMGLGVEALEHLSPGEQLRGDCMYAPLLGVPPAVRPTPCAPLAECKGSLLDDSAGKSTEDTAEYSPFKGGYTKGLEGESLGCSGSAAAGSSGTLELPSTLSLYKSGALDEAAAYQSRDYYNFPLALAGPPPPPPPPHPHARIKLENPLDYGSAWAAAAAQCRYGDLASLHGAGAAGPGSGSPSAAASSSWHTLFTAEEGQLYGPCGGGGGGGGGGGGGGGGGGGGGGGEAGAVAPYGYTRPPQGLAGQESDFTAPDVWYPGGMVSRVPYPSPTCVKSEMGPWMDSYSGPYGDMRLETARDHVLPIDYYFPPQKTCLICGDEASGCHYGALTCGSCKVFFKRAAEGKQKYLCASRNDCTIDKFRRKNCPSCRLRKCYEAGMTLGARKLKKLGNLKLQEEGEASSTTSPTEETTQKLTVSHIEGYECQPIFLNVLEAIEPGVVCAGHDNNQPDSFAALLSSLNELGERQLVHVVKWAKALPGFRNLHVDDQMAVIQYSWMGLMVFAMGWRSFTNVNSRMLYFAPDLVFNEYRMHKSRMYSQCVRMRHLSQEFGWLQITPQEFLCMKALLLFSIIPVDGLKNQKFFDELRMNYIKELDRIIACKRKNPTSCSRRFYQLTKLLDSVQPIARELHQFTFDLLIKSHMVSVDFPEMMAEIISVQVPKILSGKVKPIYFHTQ
# Chain of UniProt P11511 (P11511 whole entry, looked up): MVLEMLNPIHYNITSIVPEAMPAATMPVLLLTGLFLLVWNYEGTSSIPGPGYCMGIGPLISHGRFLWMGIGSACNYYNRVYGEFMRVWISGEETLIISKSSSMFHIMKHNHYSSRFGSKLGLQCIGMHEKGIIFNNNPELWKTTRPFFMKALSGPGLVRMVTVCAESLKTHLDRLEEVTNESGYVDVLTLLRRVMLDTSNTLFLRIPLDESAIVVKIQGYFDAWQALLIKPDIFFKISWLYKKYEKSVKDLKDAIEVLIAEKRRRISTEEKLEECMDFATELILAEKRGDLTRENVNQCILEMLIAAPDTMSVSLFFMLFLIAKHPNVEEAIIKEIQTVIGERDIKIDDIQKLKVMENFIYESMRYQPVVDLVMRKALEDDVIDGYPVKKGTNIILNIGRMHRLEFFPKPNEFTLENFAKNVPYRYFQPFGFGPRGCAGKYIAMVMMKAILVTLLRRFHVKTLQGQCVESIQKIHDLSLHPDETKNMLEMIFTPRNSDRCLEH
structure (smiles),measurement,setting,value
CCCCCCCCCCCCOCCOCCOCCOCCOCCOCCOCCOCCOCCO,Potency,[1],active: 23.9 µM
same,Potency,[2],active: 2.98 µM
same,Potency,[3],active: 9.44 µM
same,activation,[4],inconclusive: -8% [phenotype inactive]
same,Potency,[5],inconclusive: 6.74 µM
same,Potency,[6],active: 10.7 µM
same,Potency,[7],"inconclusive: 3.76 µM [inhibitor, full curve]"
same,Potency,[8],active: 5.96 µM
same,Potency,[9],active: 23.7 µM
NNc1nc(-c2ccc([N+](=O)[O-])cc2)cs1,Potency,[1],active: 43.6 µM
same,Potency,[10],active: 4.33 µM
same,Potency,[11],active: 24.5 µM
same,activation,[12],inconclusive: -2.59%
same,Potency,[5],"inconclusive: 3.47 µM [rising, full curve, poor fit]"
same,Potency,[6],active: 15.5 µM
same,Potency,[7],"inconclusive: 68.6 µM [inhibitor, single point]"
same,Potency,[8],"inconclusive: 61.1 µM [falling, partial curve]"
same,Potency,[9],active: 54.5 µM
O=CCCCC=O,Potency,[1],"inconclusive: 2.68 µM [rising, single point]"
same,Potency,[13],"inconclusive: 26.6 µM [cytotoxic, partial curve] and inconclusive: 52.5 µM [cytotoxic, partial curve]"
same,Potency,[10],inconclusive: 33.5 µM [cytotoxic] and inactive and active: 2.73 µM
same,Potency,[3],"inconclusive: 26.3 µM [rising, single point]"
same,Potency,[6],"inconclusive: 21.1 µM [cytotoxic, single point]"
CCCCCCCCCCCC[N+](C)(C)C,Potency,[1],active: 24.5 µM and active: 17.4 µM and active: 38.9 µM
same,Potency,[13],active: 432 nM and active: 137 nM and active: 217 nM
same,Potency,[14],active: 48.9 µM and active: 49 µM and active: 38.9 µM
same,Potency,[3],active: 17.2 µM and active: 13.7 µM and active: 15.4 µM
same,Potency,[4],"inconclusive: 8.61 µM [inhibitor, partial curve, poor fit]"
same,activation,[4],inconclusive: -9.79% [phenotype inactive] and inconclusive: -9.58% [phenotype inactive]
same,Potency,[6],"inconclusive: 10.9 µM [cytotoxic, full curve, poor fit] and active: 54.9 µM"
same,Potency,[9],"active: 60.9 µM and inconclusive: 61.1 µM [cytotoxic] and inconclusive: 61.1 µM [cytotoxic, partial curve]"
same,Potency,[15],active: 24.3 µM and active: 17.2 µM and active: 21.7 µM
COCC(=O)O[C@]1(CCN(C)CCCc2nc3ccccc3[nH]2)CCc2cc(F)ccc2[C@@H]1C(C)C,Potency,[1],active: 10.7 µM
same,Potency,[13],active: 4.22 µM
same,Potency,[14],active: 10.7 µM
same,Potency,[11],"inconclusive: 23.9 µM [falling, single point]"
same,Potency,[12],inconclusive: 19 µM [cytotoxic]
same,activation,[4],inconclusive: -8.43% [phenotype inactive]
same,Potency,[5],"inconclusive: 9.52 µM [rising, partial curve]"
same,Potency,[6],active: 9.52 µM
same,Potency,[16],inconclusive: 26.8 µM [cytotoxic]
same,Potency,[7],"inconclusive: 13.3 µM [inhibitor, full curve]"
same,Potency,[9],active: 26.6 µM
O=C(c1ccccc1)c1cc(Cl)ccc1O,"viability change, negative = cytotoxic",[1],inconclusive: 31.5%
same,Potency,[10],inactive
same,Potency,[14],"inconclusive: 41.4 µM [cytotoxic, partial curve, poor fit]"
same,Potency,[3],"inconclusive: 25.9 µM [rising, partial curve]"
same,Potency,[5],"inconclusive: 20.8 µM [activator, partial curve]"
same,Potency,[16],active: 58.5 µM [activator]
same,activation,[7],active: 22.1%
same,Potency,[15],"inconclusive: 58 µM [inhibitor, partial curve, poor fit]"
C[C@]12C[C@H](O)[C@H]3[C@@H](CCC4=CC(=O)CC[C@@]43C)[C@@H]1CC[C@@H]2C(=O)CO,Potency,[1],"inconclusive: 49.1 µM [cytotoxic, partial curve]"
same,Potency,[13],"inconclusive: 54.6 µM [cytotoxic, partial curve] and inconclusive: 54.5 µM [cytotoxic, partial curve]"
same,Potency,[10],"inconclusive: 26.6 µM [cytotoxic, partial curve] and inconclusive: 68.7 µM [cytotoxic, single point]"
same,Potency,[14],"inconclusive: 39 µM [cytotoxic, partial curve, poor fit]"
same,Potency,[5],"inconclusive: 21.9 µM [falling, single point]"
same,Potency,[6],"inconclusive: 9.52 µM [cytotoxic, single point] and inconclusive: 21.9 µM [cytotoxic, partial curve, poor fit]"

# From PubChem BioAssay (Tox21)
